{"source": "PubChem BioAssay AID904", "about": "(National Center for Advancing Translational Sciences (NCATS), 2007)", "note": "Hit rate of the full screen: of about 55,000 compounds, about 530 (0.96%) were called active. The inconclusive results got no clear call from the source; some entries with a clear call stand among them for comparison. Calls come from the whole dose curve; as a rule, active = well fitted cell-killing curve with a large enough effect; inconclusive = small, poorly fitted or top-dose-only effect; inactive = no such curve, though single readings can be large or run the other way. Potencies of inconclusive entries are doubtful fits and often do not repeat. Potency is the fitted concentration of half-maximal effect; tags give direction and shape of the fitted curve.", "data": [{"test": "qHTS Screen for Compounds that Selectively Target Cancer Cells with p53 Mutations: Cytotoxicity of p53 Null Cells at the Nonpermissive Temperature; note: nearly all actives have a fitted effect of over 50% in size;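 for activity, negative = cell killing: 0% = DMSO only and -100% = full killing by 100 µM tamoxifen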", "conditions": "H1299 p53-null (neo) cells, 39C, ATPlite viability, 24 h; activity, negative = cell killing: at 46.1 µM (top of the series)", "in_short": "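Following overnight plating at 37C (600 cells/well), H1299-neo or H1299-p53A138V cells are dosed up to 46 uM. Incubation lasts 24 hr at 39C before ATP detection.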", "values": [{"compound": "CCCc1cc(=O)[nH]c(Nc2ccc(O)cc2C)n1", "Potency": "inactive"}, {"compound": "O=C(C1CCCCC1)N(Cc1cccnc1)c1nc2ccc(F)cc2s1", "Potency": "inconclusive: 35.5 µM [cytotoxic, partial curve, poor fit]"}, {"compound": "CC(C)c1ccc(/C=C(\\C#N)c2nc(-c3ccc(O)cc3)cs2)cc1", "Potency": "inconclusive: 25.1 µM [cytotoxic, single point]"}, {"compound": "COc1ccc(C(=O)Nc2ccccc2C(=O)OCc2cc(=O)n3nc(C4CC4)sc3n2)cc1", "Potency": "inconclusive: 0.0251 µM [cytotoxic, full curve, poor fit]"}, {"compound": "CCCCN(CC)Cc1ccc(CNS(=O)(=O)c2cc3c(cc2Cl)NC(=O)CO3)o1", "Potency": "inactive"}, {"compound": "c1ccc(-c2nc(-c3ccccn3)no2)cc1", "Potency": "active: 7.94 µM"}, {"compound": "O=C(NCCCN1CCN(c2ccc(F)cc2)CC1)c1ccc2nc(CCc3ccccc3)oc2c1", "Potency": "inconclusive: 0.224 µM [cytotoxic, full curve]"}, {"compound": "Cc1c(C(=O)NCc2ccccc2Br)oc2ccc3c(c12)C(=O)CC(C)(C)O3", "Potency": "inconclusive: 12.6 µM [cytotoxic, partial curve, poor fit]"}, {"compound": "CC(=O)c1cccc(Nc2nc(-c3ccccc3Cl)nc3ccccc23)c1", "Potency": "inconclusive: 20 µM [cytotoxic, partial curve, poor fit]"}, {"compound": "CCc1ccc(-c2nc(CSCC(=O)NCc3ccc(C)cc3)c(C)o2)cc1", "Potency": "inactive"}, {"compound": "Cc1cc(C(=O)Nc2sc3c(c2C#N)CCCC3)no1", "Potency": "active: 11.2 µM"}, {"compound": "COc1cccc(NC(=O)Nc2cccs2)c1", "Potency": "inconclusive: 35.5 µM [cytotoxic, partial curve, poor fit]"}, {"compound": "CCOC(=O)CC(NC(=O)CCc1c(C)nc2cc(-c3ccccc3)nn2c1C)c1ccc(C)cc1", "note": "(stereo not given)", "Potency": "inactive"}, {"compound": "O=C(CCCn1c(=O)[nH]c2ccsc2c1=O)N1CCN(c2ccc(Cl)cc2)CC1", "Potency": "inactive"}, {"compound": "CC(=O)c1cccc(NC(=O)Nc2cc3c(cc2N2CCCC2)n(C)c(=O)n3C)c1", "Potency": "inconclusive: 0.0032 µM [cytotoxic, full curve, poor fit]"}, {"compound": "CCCOCc1cc(CN2CCN(c3ccccc3OC)CC2)c(O)c2ncccc12", "Potency": "active: 3.16 µM"}, {"compound": "O=C(CC1N=C2c3ccccc3N=C(SCC(=O)Nc3ccccc3F)N2C1=O)NCc1ccc2c(c1)OCO2", "note": "(stereo not given)", "Potency": "inconclusive: 31.6 µM [cytotoxic, single point]"}, {"compound": "CCOc1ccc(C(=O)Nc2ccc3nc4c(c(Nc5ccccc5OC)c3c2)CCCC4)cc1", "Potency": "inconclusive: 12.6 µM [cytotoxic, single point]"}, {"compound": "CC1=C(C(=O)Nc2cccc(C(F)(F)F)c2)C2(CCCCCC2)OC1=O", "Potency": "inconclusive: 22.4 µM [cytotoxic, single point]"}, {"compound": "Cc1ccc(C(=O)c2cn(Cc3c(F)cccc3Cl)c3nc(C)ccc3c2=O)cc1", "Potency": "inactive"}, {"compound": "Cc1ccc(CNC(=O)CN2C(=O)COc3ccccc32)cc1", "Potency": "inactive"}, {"compound": "Cc1cc(C)cc(NC(=O)Cn2c(=O)n(CC(=O)NCCc3ccccc3)c(=O)c3ccccc32)c1", "Potency": "inconclusive: 15.8 µM [cytotoxic, partial curve]"}, {"compound": "Cc1ccc(NC(=O)Cn2ncn3c(cc4ccccc43)c2=O)cc1C", "Potency": "inconclusive: 6.31 µM [cytotoxic, partial curve]"}, {"compound": "Cc1ccc(CNC(=O)c2cccc(Nc3nc4ccccc4n4nnnc34)c2)cc1", "Potency": "inactive"}, {"compound": "O=C(Nc1ccc2oc(-c3ccc4ccccc4c3)nc2c1)c1cc(Cl)ccc1Cl", "Potency": "inactive"}, {"compound": "Cc1ccc2nc(CN3CCN(S(=O)(=O)c4ccc(C)c(C)c4)CC3)oc2c1", "Potency": "inactive"}, {"compound": "Clc1cccc(-n2ncc3c(NCCCN4CCOCC4)ncnc32)c1", "Potency": "inactive"}, {"compound": "Cc1cccc(Nc2nc3c(S(=O)(=O)c4ccc(Br)cc4)nnn3c3ccsc23)c1C", "Potency": "inconclusive: 31.6 µM [cytotoxic, single point]"}, {"compound": "Cc1ccc2c(c1)N(C(=O)CCC(=O)NCc1cccs1)CC(C)O2", "note": "(stereo not given)", "Potency": "inactive"}, {"compound": "COC(=O)c1ccccc1NC(=O)Cn1c(CCC(=O)O)ccc1-c1ccc(C)cc1", "Potency": "inactive"}, {"compound": "COC(=O)c1ccccc1NC(=O)Cn1c(=O)n(CCCC(=O)NCc2ccccc2Cl)c(=O)c2ccccc21", "Potency": "inconclusive: 31.6 µM [cytotoxic, single point]"}, {"compound": "Cc1nc(Nc2ccccc2)sc1-c1ccccc1", "Potency": "inconclusive: 17.8 µM [cytotoxic, single point]"}, {"compound": "Cc1cc(C)cc(NC(=O)c2cccc(C(=O)Nc3cc(C)cc(C)c3)c2)c1", "Potency": "inactive"}, {"compound": "CCOc1ccc(CNC(=O)C2CCCN(c3nn4cc(-c5ccc(F)cc5)nc4s3)C2)cc1", "note": "(stereo not given)", "Potency": "inactive"}, {"compound": "CC(=O)Nc1ccc(NC(=O)C(NS(=O)(=O)c2ccc(Br)s2)c2ccccc2)cc1", "note": "(stereo not given)", "Potency": "inactive"}, {"compound": "Cc1ccc(C)c(NS(=O)(=O)c2ccc3oc(=O)c4ncn(C)c4c3c2)c1", "Potency": "inconclusive: 20 µM [cytotoxic, single point]"}, {"compound": "CCN(C(=O)c1ccco1)c1nnc(-c2ccc(OC)cc2)s1", "Potency": "active: 12.6 µM"}, {"compound": "Cc1ccc(CNC(=O)CSCc2nc(-c3cccc(C)c3)oc2C)cc1", "Potency": "inconclusive: 0.0251 µM [cytotoxic, full curve, poor fit]"}, {"compound": "CCNC(=O)CSc1nnc(-c2ccccc2Br)n1-c1cccc(C(F)(F)F)c1", "Potency": "inconclusive: 35.5 µM [cytotoxic, partial curve, poor fit]"}, {"compound": "Cc1nc(-c2cccc(F)c2)sc1CCNC(=O)C(=O)Nc1ccc2c(c1)OCCO2", "Potency": "inconclusive: 0.01 µM [cytotoxic, full curve]"}, {"compound": "CC1=Nc2cc(C(=O)NC3CCC(C)CC3)ccc2Sc2c(C)ccc(C)c21", "note": "(stereo not given)", "Potency": "inconclusive: 0.447 µM [cytotoxic, full curve]"}, {"compound": "COC(=O)c1ccc(Nc2nc(-c3ccc(C)cc3)nc3ccccc23)cc1", "Potency": "active: 15.8 µM"}, {"compound": "Cc1ccc(-c2cc(N)n(Cc3cccc(Cl)c3)n2)cc1", "Potency": "inconclusive: 0.02 µM [cytotoxic, full curve, poor fit]"}, {"compound": "Cc1coc2cc3oc(=O)c(CCC(=O)N4CCCCC4)c(C)c3cc12", "Potency": "inactive"}, {"compound": "N#Cc1c(-n2ncnc2-c2ccc(Br)cc2)sc2c1CCCCC2", "Potency": "inconclusive: 12.6 µM [cytotoxic, single point]"}, {"compound": "CC(C)c1ccc(NC(=O)c2ccc3c(c2)CCCN3S(C)(=O)=O)cc1", "Potency": "inconclusive: 31.6 µM [cytotoxic, single point]"}, {"compound": "O=C(Nc1ccc2c(c1)CCCN2C(=O)c1cccs1)c1c(F)cccc1F", "Potency": "inconclusive: 3.55 µM [cytotoxic, partial curve, poor fit]"}, {"compound": "Cc1ccccc1Nc1c(-c2ccc(Cl)s2)nc2c(C)cccn12", "Potency": "inconclusive: 12.6 µM [cytotoxic, partial curve, poor fit]"}, {"compound": "O=C(CCc1cn(Cc2ccccc2Cl)c2ccccc12)NC1CCCCC1", "Potency": "inconclusive: 0.631 µM [cytotoxic, full curve, poor fit]"}, {"compound": "COc1ccc(C)cc1NC(=O)C1CCN(S(=O)(=O)c2ccc3[nH]c4c(c3c2)CCCCC4)CC1", "activity, negative = cell killing": "inconclusive: -36.1% [cytotoxic]"}, {"compound": "CC(=O)Nc1ccc(NC(=O)c2ccc(COc3ccc(Cl)cc3Cl)o2)cc1", "Potency": "inconclusive: 1 µM [cytotoxic, single point]"}, {"compound": "COC(=O)c1ccccc1NC(=O)c1nc(S(=O)(=O)Cc2cccc(C)c2)ncc1Cl", "Potency": "inactive"}, {"compound": "COc1cc(C2CC(=O)N(Cc3ccc(F)cc3)c3ccccc3S2)cc(OC)c1OC", "note": "(stereo not given)", "Potency": "inactive"}, {"compound": "CCOC(=O)c1ccc(NC(=O)CSc2nnc(CNC(=O)c3ccc(OC)cc3)n2CC)cc1", "Potency": "inconclusive: 11.2 µM [cytotoxic, partial curve, poor fit]"}, {"compound": "CCOC(=O)CN(Cc1ccccc1)C(C(=O)NC1CCCCC1)c1ccc(C)cc1", "note": "(stereo not given)", "Potency": "inconclusive: 31.6 µM [cytotoxic, single point]"}, {"compound": "Cc1c(C(=O)NCc2ccccc2Cl)sc2nc(-c3ccc(F)cc3)cn12", "Potency": "inconclusive: 0.004 µM [cytotoxic, full curve, poor fit]"}, {"compound": "COc1ccc(N2CCN(CC(O)COc3ccc(C)cc3C)CC2)cc1", "note": "(stereo not given)", "Potency": "inactive"}, {"compound": "Cc1cc(C)c2c(n1)SCC(=O)N2CC(=O)Nc1ccc(C)c(C)c1", "Potency": "inconclusive: 0.01 µM [cytotoxic, full curve, poor fit]"}, {"compound": "O=S(=O)(NCc1ccccc1Cl)c1ccc(-c2cnc(C3CC3)o2)cc1", "Potency": "inconclusive: 25.1 µM [cytotoxic, partial curve, poor fit]"}, {"compound": "Cc1ccccc1CNC(=O)c1cccc(NC(=O)c2nsc3ccccc23)c1", "Potency": "inconclusive: 22.4 µM [cytotoxic, single point]"}, {"compound": "Cc1ccc(NC(=O)CN(CCc2ccccc2)S(=O)(=O)c2ccccc2)c(C)c1", "Potency": "inactive"}, {"compound": "CN(C(=O)CSc1nc2ccc(NC(=O)c3ccccc3F)cc2s1)c1ccccc1", "Potency": "inconclusive: 6.31 µM [cytotoxic, full curve]"}, {"compound": "Cn1c(=O)oc2cc(S(=O)(=O)N3CCCC(C(=O)N4CCN(c5ccc(Cl)cc5)CC4)C3)ccc21", "note": "(stereo not given)", "Potency": "inactive"}, {"compound": "O=C(NCCc1ccccc1)c1ccc(Cn2c(=O)c3cccn3c3cccnc32)cc1", "Potency": "inactive"}, {"compound": "CCCCN(C(=O)Nc1ccc(Cl)cc1)C1CCN(C(C)=O)CC1", "Potency": "inactive"}, {"compound": "O=C1CC(c2nc3ccccc3n2CCC2CCCCC2)CN1c1ccccc1Cl", "note": "(stereo not given)", "Potency": "active: 15.8 µM"}, {"compound": "CCCS(=O)(=O)NCCc1csc2nc(-c3ccc(C)cc3)nn12", "Potency": "inconclusive: 0.251 µM [cytotoxic, full curve]"}, {"compound": "Cc1cc(C)c(C(N)=O)c(Nc2cccc3ccccc23)n1", "Potency": "inconclusive: 22.4 µM [cytotoxic, single point]"}, {"compound": "COc1ccc(CCNC(=O)Cn2cnc3c(nnn3Cc3ccccc3F)c2=O)cc1OC", "Potency": "inactive"}, {"compound": "CN(NC(=S)Nc1ccc(OC(F)F)cc1)C(=S)Nc1ccc(OC(F)F)cc1", "Potency": "inconclusive: 28.2 µM [cytotoxic, single point]"}]}]}
